Laboratory results taken from PubChem BioAssay AID504706 (National Center for Advancing Translational Sciences (NCATS), 2011).
In all, about 320,000 compounds went through this assay and about 200 (0.062%) were called active. Inconclusive results, whose numbers are uncertain, are shown with a selection of clear calls. The call rests on the fitted dose curve; in most records, active means well fitted activation curve with a large enough effect; inconclusive means small, poorly fitted or top-dose-only effect; inactive means no such curve, though single readings can be large or run the other way. No potency is given beside an inconclusive call; the fits are too rough.

Assay: qHTS assay for re-activators of p53 using a Luc reporter; further: nearly all actives have a fitted effect of over 45% in size; on activity change, positive = activation: % of control where 0% means no effect
Conditions: H1299 p53-A138V BP100-luciferase reporter, luminescence, 24 h; series mostly up to 92.2 µM; activity change, positive = activation: at the top concentration
Method in brief: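 H1299 (p53-null), stable ts p53-A138V + BP100-Luc; 1000 cells/well, Opti-MEM/10% FBS; cpd 4 pt, 1:5; 24 h, 37 deg C, 5% CO2; detection reagent 10 min RT; luminescence.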
Potency means the concentration at half of the fitted maximal effect; tags describe the fitted curve by direction and shape.

| SMILES | activity change, positive = activation | Potency |
| --- | --- | --- |
| Cc1c(Cl)cccc1NC(=S)NCCC(C)C | inactive: 9.22% | – |
| CC(=O)Nc1nnc(-c2ccc3c(c2)CCCC3)o1 | – | inconclusive [activator, full curve, poor fit] |
| Clc1ccccc1-c1nc(-c2ccccc2)n[nH]1 | – | inconclusive [activator, partial curve, poor fit] |
| CC1(C)Cc2c(sc(NC(=O)c3ccco3)c2C#N)CO1 | – | inconclusive [activator, partial curve, poor fit] |
| CCOc1cc(-n2ncc(C#N)c2N)nc(SC)n1 | inactive: -3.4% | – |
| COc1cc(F)c(C2=CC(=O)CC(C)(C)C2)cc1F | – | inconclusive [activator, partial curve, poor fit] |
| O=C(N[C@@H](Cc1c[nH]c2ccccc12)C(=O)NC1CC1)c1ccccc1Cl | – | inconclusive [activator, partial curve, poor fit] |
| CC(C)(C)C1=Nn2c(nnc2-c2ccco2)SC1 | inactive: -3.97% | – |
| O=C(N/N=C/c1cc([N+](=O)[O-])ccc1O)c1ccc2c(c1)OCCO2 | – | inconclusive [activator, partial curve, poor fit] |
| C=CCS/C(=N\n1cnc2ccccc2c1=O)N1CCCCC1 | – | inconclusive [activator, partial curve, poor fit] |
| CCCCSc1ncc(C(=O)OCC)c(N)n1 | – | inconclusive [activator, partial curve, poor fit] |
| O=C(NN=C1CCCCCC1)c1ccncc1 | inactive: 17.2% | – |
| O=C(Nc1cccnc1)c1cc(-c2ccc(Cl)cc2Cl)on1 | inactive: 27.9% | – |
| CCN1CCN(C(=S)Nc2ccc(Cl)cc2)CC1 | – | inconclusive [activator, full curve, poor fit] |
| COCCn1c(SCC(=O)N2CCCc3ccccc32)nnc1-c1ccco1 | – | inconclusive [activator, single point] |
| CCOc1cc(/C=N\NC(=O)c2ccc(NC(=O)CC)cc2)ccc1OC(=O)c1ccccc1 | inactive: -1.94% | – |
| O=S(=O)(NC1CCCCC1Oc1ccccc1)c1ccc(Cl)cc1 (stereo unspecified) | – | inconclusive [activator, single point] |
| CC1=C(C)CC(C(=O)NCc2ccccc2F)C(C(=O)O)C1 (stereo unspecified) | – | inconclusive [activator, single point] |
| O=C(CN1C(=O)S/C(=C\c2ccccc2F)C1=O)NC1CCS(=O)(=O)C1 (stereo unspecified) | – | inconclusive [activator, single point] |
| O=C(NCCCCNC(=O)c1cccnc1Cl)c1cccnc1Cl | – | inconclusive [activator, partial curve, poor fit] |
| CCn1ncc(/C=C/C(=O)C2CC2)c1C | – | inconclusive [activator, single point] |
| CCCCCCOc1ccc(C(=O)O)cc1C#N | inactive: 14.6% | – |
| COc1ccc(C(=O)Nc2cccc(OC)c2)cc1 | inactive: 35.2% | – |
| Cn1c(-c2c(N)n(-c3ccccc3)c3nc4ccccc4nc23)nc2ccccc21 | inactive: -6.88% | – |

| SMILES | activity change, positive = activation | Potency |
| --- | --- | --- |
| O=C(C(c1ccccc1)c1ccccc1)N1CCCc2ccccc21 | – | inconclusive [activator, full curve, poor fit] |
| Cc1ccc(N2C(=O)[C@@H]3[C@H](C2=O)C2c4ccccc4C=CN2[C@@H]3C(=O)c2ccco2)c(C)c1 (stereo partly specified) | inactive: -10.5% | – |
| Nc1nc(Nc2ccccc2)sc1C(=O)c1ccccc1 | – | inconclusive [activator, full curve, poor fit] |
| CCOc1ccccc1NC(=O)COC(=O)CCOc1cc(C)ccc1C | inactive: 3.35% | – |
| Cc1c(CN(C)C)c2c(n1C)C(=O)c1ccc(Br)cc1-2 | – | inconclusive [activator, partial curve, poor fit] |
| CCc1ccc(/C=N/NC(=O)c2cc(C)on2)s1 | – | inconclusive [activator, partial curve, poor fit] |
| Oc1ccc(N=Nc2n[nH]c(-c3ccc(Br)cc3)n2)cc1 | – | inconclusive [activator, partial curve, poor fit] |
| CC1C(O)=C(c2nc3ccccc3[nH]2)C(=N)N1c1ccccc1 (stereo unspecified) | – | inconclusive [activator, partial curve, poor fit] |
| COCc1nc2oc3ccc(F)cc3c(=O)c2cc1C(=O)OC | inactive: 6.01% | – |
| COC(=O)c1nc2cc(C)ccn2c1F | – | inconclusive [activator, full curve, poor fit] |
| CC(C)c1ccc(NC(=S)N2CCCC(c3ccc(F)cc3)=N2)cc1 | inactive: -10.5% | – |
| COc1ccc2cc3cc(C(=O)N4CCN(c5ccccn5)CC4)oc3nc2c1 | inactive: 3.29% | – |
| O=C(c1cccc(F)c1)N1CCN(c2cccc(C(F)(F)F)c2)CC1 | – | inconclusive [activator, single point] |
| Cc1c(C(=O)O)cccc1-c1ccc(C=O)o1 | – | inconclusive [activator, partial curve, poor fit] |
| COC(=O)c1cnc(Oc2ccc(NC(=O)NC(=O)c3c(OC)cccc3OC)cc2)cc1C(F)(F)F | – | inconclusive [activator, single point] |
| COc1ccc(CNC(NC(=O)c2ccccc2)(C(F)(F)F)C(F)(F)F)cc1 | – | inconclusive [activator, partial curve, poor fit] |
| COc1ccccc1OCC(=O)N/N=C1\CCCCc2ccccc21 | inactive: -0.601% | – |
| COc1ccc2c(c1)O[C@@H](c1ccc3c(c1)OCO3)[C@H](OC(=O)Nc1cc(OC)c(OC)c(OC)c1)C2=O | – | inconclusive [activator, single point] |
| COc1ccc(CCN2C(=O)CSC2c2ccc(OC)c(OC)c2)cc1OC (stereo unspecified) | inactive: -0.602% | – |
| CCCCNC(=O)[C@@H]1CSC2c3ccccc3C(=O)N21 (stereo partly specified) | inactive: 10.8% | – |
| S=c1[nH]nc(-c2cc(-c3ccccc3)n[nH]2)n1/N=C/c1ccc(Br)s1 | inactive: 2.21% | – |
| O=[n+]1c2c(n([O-])c3cc(F)c(N4CCCC4)cc31)CCCC2 | – | inconclusive [activator, partial curve, poor fit] |
| Cc1ccc2nc3c(cc(C(=O)NC4CCS(=O)(=O)C4)n3Cc3ccccc3)c(=O)n2c1 (stereo unspecified) | inactive: -4.25% | – |
| CCOC(=O)c1ccc(NC(=O)C2CCCO2)cc1 (stereo unspecified) | – | inconclusive [activator, full curve] |

| SMILES | activity change, positive = activation | Potency |
| --- | --- | --- |
| O=C(Cc1nc(=O)c2ccccc2s1)Nc1ccccc1 | – | inconclusive [activator, full curve, poor fit] |
| COC(=O)C(C)n1cnc2c(cnn2-c2ccc(Cl)cc2)c1=O (stereo unspecified) | – | inconclusive [activator, single point] |
| CCOC(=O)N1CCN(CC(=O)c2ccc(O)c(C)c2O)CC1 | – | inconclusive [activator, partial curve, poor fit] |
| O=C(NCCc1ccccc1)c1noc2c1CCc1ccccc1-2 | – | inconclusive [activator, single point] |
| N/C(=C\C(=O)c1cc(Cl)ccc1O)C(Cl)(Cl)Cl | inactive: -11.2% | – |
| COc1ccc(F)cc1CN1CCN(C(=O)CCC(=O)Nc2nnc(C3CCCCC3)s2)CC1 | inactive: 1.99% | – |
| COc1ccc(-c2noc(CCC(=O)N3CCN(c4cccc(OC)c4)CC3)n2)cc1 | inactive: 15.1% | – |
| O=C(N/N=C/C=C/c1ccc([N+](=O)[O-])cc1)C1COc2ccccc2O1 (stereo unspecified) | – | inconclusive [activator, single point] |
| Nc1c(C(=O)NCc2ccco2)c2nc3ccccc3nc2n1CCc1ccccc1F | – | inconclusive [activator, single point] |
| COCC(=O)Nc1nc(-c2ccccc2)ns1 | – | inconclusive [activator, partial curve, poor fit] |
| Nc1ncnc(Nc2ccccn2)c1[N+](=O)[O-] | inactive: -2.18% | – |
| COc1cccc(NC(=O)CN(C)C(=O)c2ccc(Cl)c(S(=O)(=O)N3CCCCCC3)c2)c1 | inactive: -10.5% | – |
| CN(C(=O)c1ccncc1)c1nnc(-c2ccccn2)s1 | – | inconclusive [activator, partial curve, poor fit] |
| COCCCN1C(=O)C(=O)/C(=C(/O)c2ccc3c(c2)OCCO3)C1c1ccc(C(=O)OC)cc1 (stereo unspecified) | inactive: 3.18% | – |
| Cn1cc(Br)c(C(=O)NNC(=O)c2ccc(Br)cc2)n1 | – | inconclusive [activator, partial curve, poor fit] |
| Cc1csc(NC(=O)c2cnccn2)n1 | – | inconclusive [activator, single point] |
| O=C(COc1ccccc1/C=C\c1[nH]c(=O)[nH]c(=O)c1[N+](=O)[O-])Nc1ccccc1 | – | inconclusive [activator, partial curve, poor fit] |
| CC1CCN(C(=O)COC(=O)c2n[nH]c3ccccc23)CC1 | – | inconclusive [activator, partial curve, poor fit] |
| O=C(Nc1ccc(Cl)cc1)N1CCC(c2nc(-c3cccs3)no2)CC1 | – | inconclusive [activator, partial curve, poor fit] |
| O=C(CSc1nc2ccccc2n1CC(=O)N1CCCC1)NCc1ccc2c(c1)OCO2 | inactive: -4.57% | – |
| COc1ccc(N=C2NC(=O)S/C2=C\c2ccc(N(C)C)cc2)cc1 | – | inconclusive [activator, single point] |
| CC1(C)CC(=O)C=C(NC2=CC3OC(c4ccccc4)OCC3OC2=O)C1 (stereo unspecified) | inactive: -24.3% | – |
| COc1cc(OC)c(NC(=O)CCc2nc(-c3ccc(C)cc3)no2)cc1Cl | – | inconclusive [activator, partial curve, poor fit] |
